This passage reports inhibition results from PubChem BioAssay AID485344 (National Center for Advancing Translational Sciences (NCATS), 2010).

Out of some 340,000 compounds screened, about 6,900 (2%) were called active. Cut-off read from the data, not from the text of the source: active = inhibition above about 30%; inactive = below that, where a call was filed. The list shows a part of the results, in another mix than the full data. Entries without a call were filed so in the source.

Chain of UniProt P14416 (P14416 whole entry, looked up): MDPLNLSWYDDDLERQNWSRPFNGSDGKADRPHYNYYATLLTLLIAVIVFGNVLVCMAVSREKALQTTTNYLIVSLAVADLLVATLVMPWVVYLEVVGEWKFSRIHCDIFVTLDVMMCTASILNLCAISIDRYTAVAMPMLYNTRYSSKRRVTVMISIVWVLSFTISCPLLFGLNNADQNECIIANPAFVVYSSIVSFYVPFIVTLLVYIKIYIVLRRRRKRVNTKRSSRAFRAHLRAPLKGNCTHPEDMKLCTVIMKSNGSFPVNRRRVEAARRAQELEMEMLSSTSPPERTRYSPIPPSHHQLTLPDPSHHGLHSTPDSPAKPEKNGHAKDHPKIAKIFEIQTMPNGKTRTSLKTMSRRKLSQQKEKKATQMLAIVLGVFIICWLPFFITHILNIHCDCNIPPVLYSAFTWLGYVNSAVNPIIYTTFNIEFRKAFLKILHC

For the experiment, the target named is D(2) dopamine receptor (Homo sapiens) (UniProt P14416). Description: HTS Assay for Allosteric Antagonists of the Human D2 Dopamine Receptor: Primary Screen for Antagonists. Note: 0% is about no effect. Conditions: HEK293 TREx D2 cells, calcium flux, dopamine EC80; at 10 µM; stronger effect = higher value. The method in brief:
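HEK293 T-REx D2 cells, tet-induced, calcium dye no-wash. Cpd pintool add, 180 s kinetic, then EC80 DA, 180 s kinetic. Ca flux read.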
In general terms: A change in cytosolic calcium serves as a functional read-out for many receptors and channels.
Turning to `Cc1nn(-c2ccccc2)c2c1N(CC(=O)N1CCN(c3ccc(Cl)cc3)CC1)C(=O)CS2`, the inhibition (usually the change of the read-out against control, counted positive when it falls) is -0.655%. Next, `CCc1ccc(CNC(=O)CCn2nc(C)c3c(C)n(-c4ccccc4)nc3c2=O)cc1`: -1.91%; `Cc1ccc(S(=O)(=O)c2cn(Cc3ccccc3)c3cc(N4CCOCC4)c(F)cc3c2=O)cc1`: 12.8%; `COc1cc(NC(=O)c2noc3c2CC(C)CC3)c(OC)cc1Cl` (configuration not stated): -3.66%.

Turning to `CC(=O)c1cccc(NS(=O)(=O)c2c(C(=O)N3CCCCCC3)c(C)n(C)c2C)c1`, the inhibition was 5.83%. As to `COc1ccc2c(c1)c(N1CCCC1=O)c(C(=O)Nc1ccc(OC)c(Cl)c1)n2C`, the inhibition came to 9.76%. Next, `CCOc1ccc(CNC(=O)Cn2c(=O)c3cccn3c3cccnc32)cc1`: -0.357%. The result for `COc1ccc(NC(=O)[C@H](Cc2ccccc2)N2Cc3ccccc3C2=O)cc1OC` reads -5.83%; that for `COc1cccc(NC(=O)Cn2c(=O)n(Cc3ccc4c(c3)OCO4)c(=O)c3oc4ccccc4c32)c1`, 11.2%. `CCCn1c(SCC(=O)N2CCN(C(=O)c3ccco3)CC2)nc2ccccc2c1=O`: the inhibition is active: 30.8%. For `Cc1ccc(-n2ncc(C(=O)NCCN3CCN(C)CC3)c2C2CCN(C(=O)OC(C)(C)C)CC2)cc1C`, the inhibition was -9.25%. With `CCN(CC)C(=O)C1=C(C)Nc2nc3ccccc3n2C1c1cccc(OC)c1` (configuration not stated), the inhibition was -8.47%. Regarding `Cc1cc(=O)[nH]c(N/N=C/c2ccc(-c3ccc(F)cc3)o2)n1`, the inhibition was active: 48.3%. The result for `COc1ccc([N+](=O)[O-])cc1NC(=O)Cn1ccsc1=N` reads active: 30.8%.

For the molecule `O=C(Nc1ccccc1C(F)(F)F)c1ccc(F)c(S(=O)(=O)N2CCc3ccccc3C2)c1`, the inhibition was determined as 13.7%. The result for `Cc1ccc(-n2c(C)cc(/C=C(\C#N)C(=O)Nc3ccc(C)c(C)c3)c2C)cc1` reads -5.98%; that for `CCc1ccc(OCC(=O)N(Cc2ccc(C(C)C)cc2)C2CCS(=O)(=O)C2)cc1` (configuration not stated), -19.1%; that for `CCCOc1ccc(C2C(=O)N(C3CCC(C)CC3)CC(=O)N2CCc2ccccc2)cc1OC` (configuration not stated), -1.38%. The result for `CNCCOc1ccccc1-c1ccccc1` reads active: 45%; that for `Cc1ccc(-c2noc(CNC(=O)c3ccc(C)c(Cl)c3)n2)cc1`, 4.47%; that for `Cc1ccc(CN2CCN(/N=C/c3cccn3C)CC2)c(C)c1`, active: 51.4%.

For the molecule `COc1c(Br)cc(Br)cc1/C=N/NC(=O)c1ccncc1`, the inhibition was active: 93.5%. Take `CCc1cccc(NC(=O)C2CCN(S(=O)(=O)c3ccc4c(c3)CC(C)N4C(C)=O)CC2)c1` (configuration not stated): the inhibition is active: 70.1%.

`O=C(NCc1ccccc1Cl)c1nnc(Cc2cccc(F)c2)o1`: the inhibition is 9.73%. Consider `Cc1ccc2c(CC(=O)N(Cc3ccc(N(C)C)cc3)Cc3ccco3)coc2c1C`, for which the inhibition came out at 1.9%.

Take `N#Cc1ccccc1CSc1nnc(-c2ccc(Br)cc2)o1`: the inhibition was -6.39%. For the molecule `Cc1ccc(CNC(=O)Cn2ccn(-c3cccc(Cl)c3)c(=O)c2=O)cc1`, the inhibition was 9.81%.

In the case of `O=C1CSC2(C(=O)N(Cc3cccc(C(F)(F)F)c3)c3ccccc32)N1c1ccc(F)c(F)c1` (configuration not stated), the inhibition is -2.36%.

In the case of `Cc1cccc2nc(-c3ccccn3)c(Nc3ccccc3)n12`, the inhibition stood at 0.0317%.

As for `CC(C)Cn1cc(NC(=O)N2CCN(c3cccc(C(F)(F)F)c3)CC2)c2ccccc2c1=O`, the inhibition amounted to 9.71%. Next, `COc1ccc(CNC(=O)c2c(O)nc3c(C)cccn3c2=O)cc1`: 4.08%; `CCCCOC(=O)c1ccc(-n2nnc3c(sc4nc(C)cc(C)c43)c2=O)cc1`: 6.89%.

As to `O=C(Nc1ccc(Cl)cc1)NC1CCCC1Cc1ccco1` (configuration not stated), the inhibition was active: 53.4%. As to `O=S(=O)(NCCc1nnc2ccc(SCc3ccccc3Cl)nn12)c1ccccc1`, the inhibition is -3.27%. The result for `Cc1cc(N2CCC(C)CC2)nc2ccc(NC(=O)Cc3ccccc3Br)cc12` reads -8.86%; that for `COc1cc2nc(Nc3cccc(F)c3)nc(N)c2cc1OC`, -2.61%.

Turning to `CCOc1ccc(-c2nc(-c3ccccc3)c(-c3ccccc3)[nH]2)cc1OCC`, the inhibition is -19.9%. Next, `Cc1ccc(-c2nc(CSc3nnc(C)n4c3cc3occc34)c(C)o2)cc1`: -1.08%; `Cc1ccc(NC(=O)CN(Cc2ccccc2)S(=O)(=O)c2ccc3nc(C)sc3c2)c(C)c1`: 22.6%. The result for `CCCCSc1nnc2c(n1)OC(c1ccc(Br)s1)Nc1ccccc1-2` (configuration not stated) reads 7.38%; that for `CCn1c(CN2CCN(C)CC2)nc2cc(NC(=O)c3ccc([N+](=O)[O-])cc3)ccc21`, 4.34%; that for `NC(=O)C1CCN(c2csc3ccc(F)cc3c2=O)CC1`, 8.53%. Next, `COc1ccc(N2CCN(C(CNC(=O)c3ccc(OC)c(OC)c3)c3cccnc3)CC2)cc1` (configuration not stated): 4.13%; `CCOC(=O)N[C@H](Cc1c[nH]c2ccccc12)C(=O)Nc1cccc(Cl)c1`: 11.7%; `CCc1ccc(C2CC(=O)Nc3c2c(=O)n(C)c2ncnn32)cc1` (configuration not stated): 0.153%. On to `CCOCCCN(Cc1ccco1)C(=O)c1cc2c(s1)-c1c(C)cccc1OC2`, for which the inhibition stood at 22.3%.

With `COc1ccc(C(=O)c2cn(CC(=O)Nc3cc(C)ccc3C)c3nc(C)ccc3c2=O)cc1`, the inhibition is -1.41%. Next, `CC(C)Oc1ccc(CNC(=O)C2=Cc3ccccc3OC2)cc1`: 18.3%.

In the case of `CN1CCN(C(=O)c2ccc3c(c2)N(Cc2ccc(F)cc2)C(=O)c2ccccc2S3(=O)=O)CC1`, the inhibition was -1.45%.

As to `COc1ccc(NC(=O)CSc2nnc(-c3ccncc3)n2-c2ccccc2)cc1`, the inhibition stood at 8.2%. The result for `CCC(C)NC(=O)c1c2c(nc3ccccc13)C(=O)N(C1CCCCC1)C2` (configuration not stated) reads 12.3%; that for `CCOC(=O)c1cc(S(=O)(=O)Nc2ccccc2)[nH]n1`, -18%. With `O=C(CSc1n[nH]c(-c2ccc(F)cc2)n1)N1CCN(c2ccc(F)cc2)CC1`, the inhibition was -9.12%. The result for `CCc1ccc(CNC(=O)C2CCN(c3nn4cc(-c5ccc(OC)cc5)nc4s3)CC2)cc1` reads 2.2%; that for `COc1ccc(C2=NC(c3ccccc3)=Nc3ccc(C)cc3N2)cc1`, 9.93%; that for `COc1ccc(CC(=O)N2CC(=O)Nc3ccc(F)cc3C2c2ccccc2)cc1` (configuration not stated), 1.52%.

In the case of `COc1ccccc1CNC(=O)c1ccc(N2CCCC2)c(NC(=O)NCc2ccc(C)cc2)c1`, the inhibition is 19.2%. Next, `Cc1ccccc1CNC(=O)Cn1c(=O)c2cccn2c2cccnc21`: 6.82%. Next, `CC(=O)c1ccc(NC(=O)C2CCN(S(=O)(=O)c3ccc4[nH]c5c(c4c3)CCCCC5)CC2)cc1`: 2.71%; `CCCOc1ccc(C2c3c(oc4ccccc4c3=O)C(=O)N2c2nnc(C(C)C)s2)cc1` (configuration not stated): 1.89%.

For the molecule `NC(=O)c1cc(S(=O)(=O)NCc2cccc(Br)c2)cs1`, the inhibition amounted to 2.25%. Consider `Cc1nc2ccn(Cc3ccco3)c(=O)c2cc1C(=O)NCc1ccc(Cl)cc1`, for which the inhibition stood at 10.9%. As for `COC(=O)c1ccc(NC(=O)Cn2c(=O)oc3ccccc32)cc1`, the inhibition amounted to 3.03%. Regarding `Cc1ccc(CNC(=O)c2ccc3c(c2)CCN3S(=O)(=O)c2ccc(Br)cc2)cc1`, the inhibition is 1.99%. Consider `CCn1c(SCC(=O)Nc2cc(C)ccc2F)nnc1-c1ccccc1O`, for which the inhibition was found to be 7.34%. The result for `COc1ccc(N2CC(NC(=O)C3CCCCC3)CC2=O)cc1` (configuration not stated) reads -7.61%; that for `CN(CC(=O)Nc1cccc(F)c1)C(=O)C1CC(=O)N(CCc2ccccc2)C1` (configuration not stated), active: 33.5%. As for `CCN(c1ccc(OC)cc1)S(=O)(=O)c1ccc2[nH]c3c(c2c1)CCCCC3`, the inhibition was -17.3%. Next, `COc1ccc(-c2nc3ccccc3o2)cc1NC(=O)Cc1ccc(Cl)cc1`: 24.8%. The result for `Cc1cccc(N(C)C(=O)Cn2c(=O)oc3cc(S(=O)(=O)N4CCCCC4)ccc32)c1` reads 16%; that for `Cn1ccnc1SCC(=O)Nc1cccc(Br)c1`, -3.95%; that for `COc1cccc(N2C(=O)C(CC(=O)Nc3cccc(F)c3)N(C3CCCC3)C2=O)c1` (configuration not stated), -11.7%. The result for `COC(=O)c1ccccc1NC(=O)Cn1c(=O)n(CCC(=O)NCc2ccc3c(c2)OCO3)c(=O)c2ccccc21` reads 22.5%; that for `CC1=C(C(=O)OC2CCCC2)C(c2c(F)cccc2Cl)CC(=O)N1` (configuration not stated), 7.28%; that for `Cc1ccc(-c2cn3nc(N4CCCC(C(=O)NCc5ccccc5F)C4)sc3n2)cc1` (configuration not stated), 4.55%. `Cc1ccc(-c2csc(-c3c(N)c(C(=O)c4ccc5c(c4)OCO5)n4ccccc34)n2)cc1`: the inhibition is 13.4%. `COc1ccc(-n2c(-c3cccc(F)c3)nc3c(cnn3-c3ccc(C)cc3)c2=O)cc1`: the inhibition was -9.52%. With `Cc1ccc(Cn2nc3n(c2=O)-c2cc(Cl)ccc2OC3)cc1`, the inhibition came to 23.3%. `Cc1ccc(S(=O)(=O)N/N=C\c2cccnc2)cc1`: the inhibition was active: 35.3%. Turning to `COc1ccc(CCNC(=O)c2ccc(-n3c(C)cc4c3CCC(C)C4)cc2)cc1OC` (configuration not stated), the inhibition is 10.2%. On to `Cc1cc(C)cc(NC(=O)COc2cccc3c(=O)n(C)ccc23)c1`, for which the inhibition was -7.69%. In the case of `Cc1cc(C)c(OCC(=O)N(Cc2ccc(N(C)C)cc2)Cc2ccco2)c(C)c1`, the inhibition is -1.32%.

In the case of `O=C(NCc1ccc2c(c1)OCO2)c1ccc2c(c1)N(Cc1c(F)cccc1Cl)C(=O)c1ccccc1S2`, the inhibition is -3.8%.

Consider `CCOc1ccc(NS(=O)(=O)c2ccc3c(c2)NC(=O)CCS3)cc1`, for which the inhibition stood at 16.1%. Next, `Cc1ccc(NC(=S)NC2CCN(Cc3ccccc3)CC2)cc1`: active: 83.7%; `O=C(CNC(=O)c1ccc(F)cc1)OCc1cc(=O)n2ccsc2n1`: 0.446%. Next, `CCN1CCc2c(sc(NC(=O)c3ccc(S(=O)(=O)N4CCCC(C)C4)cc3)c2C(=O)OC)C1` (configuration not stated): -14.4%; `COc1ccc(C(=O)Nc2ccc3oc(-c4cccc5c(Br)cccc45)nc3c2)cc1`: -7.26%; `Cc1ccccc1Cn1c(CN2CCC(C(=O)NCc3ccc(Cl)cc3)CC2)cc2ccccc21`: 10.1%. Consider `Cc1c(Cl)cccc1NC(=O)C(=O)NCCc1csc(-c2ccc(C(F)(F)F)cc2)n1`, for which the inhibition was 15%. For the molecule `CCCCN(C)C(=O)c1ccc2c(=O)n3nc(Nc4cc(C)ccc4C)sc3nc2c1`, the inhibition was -0.129%. The result for `CCC(=O)N1CCCc2cc(S(=O)(=O)N3CCN(c4ncccn4)CC3)ccc21` reads active: 31.3%. The result for `Cn1c(=O)[nH]c(=O)c2c1nc(N1CCOCC1)n2Cc1ccccc1` reads 5.09%; that for `CCc1cccc(NC(=O)CCc2nc3cccnc3n2Cc2ccc(OC)cc2)c1`, -2.37%. In the case of `CCOC(=O)Cc1ccc(NC(=O)Nc2c[nH]c(=O)[nH]c2=O)cc1`, the inhibition was 24.1%. Consider `Cc1ccccc1OCC(=O)Nc1ccc(-c2nc3ccccc3o2)cc1`, for which the inhibition was -4.81%.

Turning to `CC(C)CCNC(=O)CN1C(=O)CSc2ccc(S(=O)(=O)N3CCC(C)CC3)cc21`, the inhibition is -4.05%.
